56 compounds from publication PMC4336329 (PLoS ONE, 2015) can be followed below.

SMILES strings stand for the structures. The whole screen tested about 310,000 compounds, of which about 2,200 (0.71%) showed an effect of 50% or more. Effects have a minus sign here. The list shows a part of the results.

In this test the target is human ether-à-go-go-related gene (hERG) potassium channel (human, UniProt Q12809). Nature of the test: primary screen, population patch clamp on CHO cells stably expressing hERG.
Chain of human ether-à-go-go-related gene (hERG) potassium channel (Q12809 whole entry, looked up): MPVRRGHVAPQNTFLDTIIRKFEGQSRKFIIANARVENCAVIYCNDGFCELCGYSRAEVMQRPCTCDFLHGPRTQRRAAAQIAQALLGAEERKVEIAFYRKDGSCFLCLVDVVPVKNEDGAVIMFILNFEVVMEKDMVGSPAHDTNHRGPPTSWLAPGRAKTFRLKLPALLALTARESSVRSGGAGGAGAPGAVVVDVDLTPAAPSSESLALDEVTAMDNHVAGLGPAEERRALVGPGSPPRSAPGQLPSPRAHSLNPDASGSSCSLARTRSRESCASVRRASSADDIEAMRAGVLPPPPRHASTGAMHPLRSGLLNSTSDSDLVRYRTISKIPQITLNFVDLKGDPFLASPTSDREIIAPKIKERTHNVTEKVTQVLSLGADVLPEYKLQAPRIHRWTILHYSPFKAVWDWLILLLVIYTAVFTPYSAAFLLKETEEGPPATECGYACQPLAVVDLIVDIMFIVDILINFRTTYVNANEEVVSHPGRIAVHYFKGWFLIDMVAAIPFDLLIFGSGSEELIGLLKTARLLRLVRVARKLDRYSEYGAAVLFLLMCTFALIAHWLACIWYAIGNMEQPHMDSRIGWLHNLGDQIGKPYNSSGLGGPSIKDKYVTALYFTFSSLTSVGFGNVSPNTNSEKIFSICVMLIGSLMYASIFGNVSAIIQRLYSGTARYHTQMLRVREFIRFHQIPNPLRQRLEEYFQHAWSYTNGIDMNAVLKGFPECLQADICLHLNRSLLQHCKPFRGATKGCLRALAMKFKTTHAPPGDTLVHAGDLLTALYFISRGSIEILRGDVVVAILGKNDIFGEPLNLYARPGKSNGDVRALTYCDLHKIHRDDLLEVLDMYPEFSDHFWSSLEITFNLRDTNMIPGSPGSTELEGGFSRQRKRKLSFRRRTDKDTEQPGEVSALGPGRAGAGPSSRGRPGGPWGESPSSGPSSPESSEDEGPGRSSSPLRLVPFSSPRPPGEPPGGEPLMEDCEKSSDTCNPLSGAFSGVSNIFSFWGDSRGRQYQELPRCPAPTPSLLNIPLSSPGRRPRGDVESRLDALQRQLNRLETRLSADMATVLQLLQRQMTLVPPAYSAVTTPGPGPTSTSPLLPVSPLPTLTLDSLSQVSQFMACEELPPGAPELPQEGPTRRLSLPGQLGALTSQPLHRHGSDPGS
As for `O=C(Nc1nnc(-c2ccc3c(c2)CCCC3)o1)C1COc2ccccc2O1` (centres unmarked), the “hERG current change (%, negative = inhibition) at 1uM” value is 9.87%.
As for `COc1ccc2c(c1OC)C(=O)N(c1cccc(C(F)(F)F)c1)C2`, the “hERG current change (%, negative = inhibition) at 1uM” value was 4.84%.
On to `O=C(O)CCc1nc2cccnc2n1Cc1ccccc1`, for which the “hERG current change (%, negative = inhibition) at 1uM” value was determined as 1.07%.
As for `CCc1noc(C)c1C(=O)N1CCCC(N2CCN(c3ccc(F)cc3)CC2)C1` (centres unmarked), the “hERG current change (%, negative = inhibition) at 1uM” value is given as -2.61%.
The result for `O=C(COC(=O)c1ccccc1NC(=O)c1ccco1)NCc1ccc2c(c1)OCO2` reads 2.27%; that for `O=C(CSc1nc(C(F)(F)F)cc(=O)[nH]1)N1CCC(Cc2ccccc2)CC1`, 5.3%.
Consider `CN(C)C(=O)N1CCCC(C(=O)NCc2ccccc2Cl)C1` (centres unmarked), for which the “hERG current change (%, negative = inhibition) at 1uM” value is on record as -3.61%.
The result for `CCCCOC(=O)C1Cc2ccccc2C(=O)O1` (centres unmarked) reads -2.84%; that for `CN(C)C(CNC(=O)c1ccc(NS(=O)(=O)c2ccc3[nH]c(=O)[nH]c3c2)cc1)c1ccccc1` (centres unmarked), 5%; that for `COc1ccc(OCc2cc(C(=O)N3C[C@@H](C)O[C@@H](C)C3)no2)c(Cl)c1`, 10.1%.
The result for `CCOC(=O)N1CCC(NC(=O)CSCc2nc(-c3ccc(OCC)cc3)oc2C)CC1` reads -3.41%; that for `O=C(NCc1ccco1)C(c1cccnc1)N(C(=O)Cn1nnc2ccccc21)c1ccc(F)cc1` (centres unmarked), 13.5%; that for `Cc1oc2cc(O)ccc2c(=O)c1Oc1ccc2ccccc2c1`, -0.271%.
`O=C(CN1CCN(c2ccccc2O)CC1)Nc1ccccc1C(=O)NCCc1ccccc1`: the “hERG current change (%, negative = inhibition) at 1uM” value is listed as 26.8%.
For the compound `Cc1ccc(NC(=O)CS(=O)CC(=O)N2CCN(c3ccccc3)CC2)cc1` (centres unmarked), the “hERG current change (%, negative = inhibition) at 1uM” value was 11.6%.
The result for `Cc1ccc(NS(=O)(=O)N2CCOCC2)c(C)c1` reads 10.3%.
For `CC(C)Oc1ccc(CNC(=O)Cn2c(=O)oc3ccccc32)cc1`, the “hERG current change (%, negative = inhibition) at 1uM” value stood at 1.68%.
As for `Cc1ccc(N2C(=O)C(Cl)=C(NCCO)C2=O)c(C)c1`, the “hERG current change (%, negative = inhibition) at 1uM” value was 21.6%.
Turning to `O=C(O)c1ccc(/C=N/N2CCN(Cc3ccc(Cl)cc3)CC2)cc1`, the “hERG current change (%, negative = inhibition) at 1uM” value came to 19.9%.
With `Cc1ccc(C2N(c3ccccc3)C(=O)N3CCCN23)cc1` (centres unmarked), the “hERG current change (%, negative = inhibition) at 1uM” value is reported as 7.78%.
The result for `N#CCCN1CCN(S(=O)(=O)c2ccc(S(=O)(=O)NCc3ccccc3)cc2)CC1` reads 12.2%.
For `Cc1ccc(-n2c(C)c(C)c3c(NCCO)ncnc32)cc1` the value was 15.3%; for `COc1cc(/C=C2/C(=O)CNC2=O)ccc1O`, 11.8%; for `O=C(Nc1ccc(CN2CCCCC2)cc1)c1cc(Br)ccc1Cl`, 0.563%.
For `COC(=O)CCCC1=CC2=CC(=O)C(C)(OC(=O)c3cnc4ccccc4n3)C(=O)C2=CO1` (centres unmarked) the value was 12.2%.
`CCOc1cc(C(=O)NC(C)c2ccncc2)cc(OCC)c1OCC` (centres unmarked): the “hERG current change (%, negative = inhibition) at 1uM” value is -1.97%.
Take `Cc1cc(Br)ccc1NC(=O)CN(C)C(=O)CNC(=O)Cc1ccccc1`: the “hERG current change (%, negative = inhibition) at 1uM” value worked out at 2.7%.
As for `Oc1c(CN2CCN(c3ccc(F)cc3)CC2)cc(Cl)c2cccnc12`, the “hERG current change (%, negative = inhibition) at 1uM” value is on record as -1.49%.
The result for `O=C(O)c1cccc(-c2ccc(/C=N/NC(=O)C3COc4ccccc4O3)o2)c1` (centres unmarked) reads 3.08%.
For `COc1ccc(CCNC(=O)CCCOc2ccc(Cl)cc2)cc1OC`, the “hERG current change (%, negative = inhibition) at 1uM” value was found to be 3.97%.
The result for `O=C(NCC1CCCO1)c1ccccn1` (centres unmarked) reads -5.63%; that for `CC(C)Cn1cnc2c(c(-c3ccccc3)c(-c3ccccc3)n2Cc2ccco2)c1=N`, -26.2%.
The result for `CC(=O)Nc1ccc(S(=O)(=O)N[C@@H](C)C(=O)N2CCN(C/C=C/c3ccccc3)CC2)cc1` reads 3.54%; that for `COc1cc(/C=C/C(=O)OCC(=O)NC2CC2)cc(S(=O)(=O)N2CCc3ccccc32)c1OC`, 5.44%; that for `COc1cc2[nH]c(=O)n(Cc3ccc(C(=O)NC4CCCC4)cc3)c(=O)c2cc1OC`, 10.1%.
Consider `O=S1(=O)N=C2CCCCCN2C(c2ccc(F)cc2)N1` (centres unmarked), for which the “hERG current change (%, negative = inhibition) at 1uM” value is reported as 6.31%.
As for `O=c1oc2ccccc2n1Cc1cccc(Cl)c1`, the “hERG current change (%, negative = inhibition) at 1uM” value was 9.95%.
For `CC(=O)c1ccc(Nc2ccc(-c3ccccc3F)nn2)cc1` the value was 7.8%; for `CCc1cc(C(=O)Nc2cc(Cl)ccc2N2CCN(C)CC2)sc1C`, 10.4%.
Turning to `COc1ccc(/C(C)=N/NC2=NCCN2)cc1Cl`, the “hERG current change (%, negative = inhibition) at 1uM” value is 6.59%.
For `CC(NC(=O)c1cc2cc(Br)ccc2oc1=N)c1ccccc1` (centres unmarked) the value was 10.7%.
Take `Cc1ccc(S(=O)(=O)N2CCCC(C(=O)NCCCN3CCCCC3C)C2)cc1` (centres unmarked): the “hERG current change (%, negative = inhibition) at 1uM” value is reported as -7.12%.
The result for `CCOc1ccc(C(=O)NCC(=O)OCc2c(C)noc2C)cc1OCC` reads 9.45%; that for `CCc1ccc2[nH]c(=O)c(CN(CCCN3CCOCC3)C(=O)Nc3cccc(Cl)c3)cc2c1`, 4.63%.
The result for `CCOC(=O)Cn1nc(NC(=O)c2ccc(C(=O)OC)cc2)cc1C` reads 15%.
In the case of `CCSc1nnc(NC(=O)c2ccc3ccccc3n2)s1`, the “hERG current change (%, negative = inhibition) at 1uM” value was 5.73%.
Consider `CS/C(N)=N/S(=O)(=O)c1ccc(NC(C)=O)cc1`, for which the “hERG current change (%, negative = inhibition) at 1uM” value is 15.2%.
For `C=CCn1c(O)c(N=Nc2ccccc2C)c2ccccc21` the value was 10%; for `Cc1ccc(N(C(C)C(=O)Nc2ccc3c(c2)OCO3)S(C)(=O)=O)cc1` (centres unmarked), 8.42%; for `Cc1cc(C2=NNC(=NCCc3ccccc3)SC2)c(C)n1-c1c(C)n(C)n(-c2ccccc2)c1=O`, 18.8%.
`O=C(C1=C(O)C(=O)N(CC2CCCO2)C1c1cccnc1)c1ccco1` (centres unmarked): the “hERG current change (%, negative = inhibition) at 1uM” value is recorded as 7.42%.
The result for `COc1ccc(-c2cc3c(=O)n(CC(=O)Nc4ccc(C(C)=O)cc4)ncn3n2)cc1` reads 24.4%.
In the case of `CCCC(=O)OCCn1c(Br)nc2c1c(=O)[nH]c(=O)n2C`, the “hERG current change (%, negative = inhibition) at 1uM” value is given as 13.8%.
On to `Cc1nc2c(C)cccc2c(SC(=N)N)c1CC=C(Cl)Cl.Cl`, for which the “hERG current change (%, negative = inhibition) at 1uM” value was determined as 12.4%.
In the case of `CCc1ccc(NC(=O)c2cc(-c3ccco3)on2)cc1`, the “hERG current change (%, negative = inhibition) at 1uM” value turned out to be 0.42%.
For the compound `CC1=NN(c2ccccc2C(=O)O)C(=O)C1N=Nc1ccccc1` (centres unmarked), the “hERG current change (%, negative = inhibition) at 1uM” value came out at 0.561%.
